# Results reported in the supplement of paper PMC8728848.
# The list shows a part of the results.
# B1: Regenerating Gene I (Homo sapiens), P05451 (protein)
# chain: MAQTSSYFMLISCLMFLSQSQGQEAQTELPQARISCPEGTNAYRSYCYYFNEDRETWVDADLYCQNMNSGNLVSVLTQAEGAFVASLIKESGTDDFNVWIGLHDPKKNRRWHWSSGSLVSYKSWGIGAPSSVNPGYCVSLTSSTGFQKWKDVPCEDKFSFVCKFKN
# How the values were obtained:
# Assay in all cases: glycan array binding signal (z-score within array); higher = stronger binding
# Conditions in all cases: glycan notation: IUPAC condensed, linker removed
# [1] = target: Man(a1-3)[Man(a1-6)]Man(a1-6)[Man(a1-3)]Man
# Method in brief: (§1)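 The binding signal is a Z-score computed within each array. Data were drawn from 3228 arrays in the Consortium for Functional Glycomics database, restricted to those with a known protein sequence. Scores were averaged over arrays of the same protein sequence at different concentrations or buffers, and over linkers, and negative values can be taken as non-binding.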
# [2] = target: Man(a1-3)[Man(a1-6)]Man(a1-6)[Man(a1-3)]Man(b1-4)GlcNAc(b1-4)GlcNAc
# Method in brief: as §1
# [3] = target: Man(a1-3)[Man(a1-6)]Man(b1-4)GlcNAc(b1-4)GlcNAc
# Method in brief: as §1
# [4] = target: Man(a1-6)Man
# Method in brief: as §1
# [5] = target: Man(b1-4)GlcNAc
# Method in brief: as §1
# [6] = target: Neu5Ac(a2-3)Gal
# Method in brief: as §1
# [7] = target: Neu5Ac(a2-3)Gal(b1-3)GalNAc
# Method in brief: as §1
# [8] = target: Neu5Ac(a2-3)Gal(b1-3)GalNAc(b1-3)Gal(a1-4)Gal(b1-4)Glc
# Method in brief: as §1
# [9] = target: Neu5Ac(a2-3)Gal(b1-3)GalNAc(b1-3)Gal(b1-4)GlcNAc
# Method in brief: as §1
# [10] = target: Neu5Ac(a2-3)Gal(b1-3)GalNAc(b1-4)[Neu5Ac(a2-3)]Gal(b1-4)Glc
# Method in brief: as §1
# [11] = target: Neu5Ac(a2-3)Gal(b1-3)GalNAc6S
# Method in brief: as §1
# [12] = target: Neu5Ac(a2-3)Gal(b1-3)GlcNAc
# Method in brief: as §1
# [13] = target: Neu5Ac(a2-3)Gal(b1-3)GlcNAc(b1-3)Gal(b1-3)GlcNAc
# Method in brief: as §1
# [14] = target: Neu5Ac(a2-3)Gal(b1-3)GlcNAc6S
# Method in brief: as §1
# [15] = target: Neu5Ac(a2-3)Gal(b1-3)[Fuc(a1-4)]GlcNAc
# Method in brief: as §1
# [16] = target: Neu5Ac(a2-3)Gal(b1-3)[Fuc(a1-4)]GlcNAc(b1-3)Gal(b1-4)[Fuc(a1-3)]GlcNAc
# Method in brief: as §1
# [17] = target: Neu5Ac(a2-3)Gal(b1-3)[Neu5Ac(a2-3)Gal(b1-4)]GlcNAc
# Method in brief: as §1
# [18] = target: Neu5Ac(a2-3)Gal(b1-3)[Neu5Ac(a2-6)]GalNAc
# Method in brief: as §1
# [19] = target: Neu5Ac(a2-3)Gal(b1-4)Glc
# Method in brief: as §1
# [20] = target: Neu5Ac(a2-3)Gal(b1-4)GlcNAc
# Method in brief: as §1
# [21] = target: Neu5Ac(a2-3)Gal(b1-4)GlcNAc(b1-2)Man(a1-3)[GlcNAc(b1-2)Man(b1-4)GlcNAc(b1-2)Man(a1-6)]Man(b1-4)GlcNAc(b1-4)GlcNAc
# Method in brief: as §1
# [22] = target: Neu5Ac(a2-3)Gal(b1-4)GlcNAc(b1-2)Man(a1-3)[Neu5Ac(a2-6)Gal(b1-4)GlcNAc(b1-2)Man(a1-6)]Man(b1-4)GlcNAc(b1-4)GlcNAc
# Method in brief: as §1
# [23] = target: Neu5Ac(a2-3)Gal(b1-4)GlcNAc(b1-3)Gal(b1-3)GlcNAc
# Method in brief: as §1
# [24] = target: Neu5Ac(a2-3)Gal(b1-4)GlcNAc(b1-3)Gal(b1-4)GlcNAc
# Method in brief: as §1
# [25] = target: Neu5Ac(a2-3)Gal(b1-4)GlcNAc(b1-3)Gal(b1-4)GlcNAc(b1-3)Gal(b1-4)GlcNAc
# Method in brief: as §1
# [26] = target: Neu5Ac(a2-3)Gal(b1-4)GlcNAc(b1-3)Gal(b1-4)[Fuc(a1-3)]GlcNAc
# Method in brief: as §1
# [27] = target: Neu5Ac(a2-3)Gal(b1-4)GlcNAc(b1-6)[Gal(b1-3)]GalNAc
# Method in brief: as §1
# [28] = target: Neu5Ac(a2-3)Gal(b1-4)GlcNAc(b1-6)[Neu5Ac(a2-3)Gal(b1-3)]GalNAc
# Method in brief: as §1
# [29] = target: Neu5Ac(a2-3)Gal(b1-4)GlcNAc6S
# Method in brief: as §1
# [30] = target: Neu5Ac(a2-3)Gal(b1-4)[Fuc(a1-3)]GlcNAc
# Method in brief: as §1
# [31] = target: Neu5Ac(a2-3)Gal(b1-4)[Fuc(a1-3)]GlcNAc(b1-3)Gal
# Method in brief: as §1
# [32] = target: Neu5Ac(a2-3)Gal(b1-4)[Fuc(a1-3)]GlcNAc(b1-3)Gal(b1-4)GlcNAc
# Method in brief: as §1
# [33] = target: Neu5Ac(a2-3)Gal(b1-4)[Fuc(a1-3)]GlcNAc(b1-3)Gal(b1-4)[Fuc(a1-3)]GlcNAc(b1-3)Gal(b1-4)[Fuc(a1-3)]GlcNAc
# Method in brief: as §1
# [34] = target: Neu5Ac(a2-3)Gal(b1-4)[Fuc(a1-3)]GlcNAc(b1-6)[Gal(b1-3)]GalNAc
# Method in brief: as §1
# [35] = target: Neu5Ac(a2-3)Gal(b1-4)[Fuc(a1-3)]GlcNAc6S
# Method in brief: as §1
# [36] = target: Neu5Ac(a2-3)Gal6S(b1-4)GlcNAc
# Method in brief: as §1
# [37] = target: Neu5Ac(a2-3)Gal6S(b1-4)[Fuc(a1-3)]GlcNAc
# Method in brief: as §1
# [38] = target: Neu5Ac(a2-3)GalNAc
# Method in brief: as §1
# [39] = target: Neu5Ac(a2-3)GalNAc(b1-4)GlcNAc
# Method in brief: as §1
# [40] = target: Neu5Ac(a2-3)[GalNAc(b1-4)]Gal(b1-4)Glc
# Method in brief: as §1
# [41] = target: Neu5Ac(a2-3)[GalNAc(b1-4)]Gal(b1-4)GlcNAc
# Method in brief: as §1
# [42] = target: Neu5Ac(a2-3)[Neu5Ac(a2-6)]GalNAc
# Method in brief: as §1
# [43] = target: Neu5Ac(a2-6)Gal
# Method in brief: as §1
# [44] = target: Neu5Ac(a2-6)Gal(b1-4)Glc
# Method in brief: as §1
# [45] = target: Neu5Ac(a2-6)Gal(b1-4)GlcNAc
# Method in brief: as §1
binder,measurement,setting,value
B1,glycan array binding signal (z-score),[1],-0.537
same,glycan array binding signal (z-score),[2],-0.447
same,glycan array binding signal (z-score),[3],-0.413
same,glycan array binding signal (z-score),[4],-0.213
same,glycan array binding signal (z-score),[5],-0.407
same,glycan array binding signal (z-score),[6],-0.293
same,glycan array binding signal (z-score),[7],-0.281
same,glycan array binding signal (z-score),[8],-0.473
same,glycan array binding signal (z-score),[9],-0.453
same,glycan array binding signal (z-score),[10],-0.488
same,glycan array binding signal (z-score),[11],0.98
same,glycan array binding signal (z-score),[12],-0.139
same,glycan array binding signal (z-score),[13],0.053
same,glycan array binding signal (z-score),[14],-0.09
same,glycan array binding signal (z-score),[15],-0.093
same,glycan array binding signal (z-score),[16],5.84
same,glycan array binding signal (z-score),[17],-0.261
same,glycan array binding signal (z-score),[18],-0.221
same,glycan array binding signal (z-score),[19],0.004
same,glycan array binding signal (z-score),[20],0.016
same,glycan array binding signal (z-score),[21],-0.426
same,glycan array binding signal (z-score),[22],-0.536
same,glycan array binding signal (z-score),[23],-0.622
same,glycan array binding signal (z-score),[24],-0.379
same,glycan array binding signal (z-score),[25],-0.184
same,glycan array binding signal (z-score),[26],-0.517
same,glycan array binding signal (z-score),[27],-0.556
same,glycan array binding signal (z-score),[28],-0.614
same,glycan array binding signal (z-score),[29],-0.126
same,glycan array binding signal (z-score),[30],-0.49
same,glycan array binding signal (z-score),[31],-0.613
same,glycan array binding signal (z-score),[32],-0.124
same,glycan array binding signal (z-score),[33],-0.599
same,glycan array binding signal (z-score),[34],-0.128
same,glycan array binding signal (z-score),[35],0.726
same,glycan array binding signal (z-score),[36],0.18
same,glycan array binding signal (z-score),[37],-0.213
same,glycan array binding signal (z-score),[38],-0.303
same,glycan array binding signal (z-score),[39],-0.617
same,glycan array binding signal (z-score),[40],-0.584
same,glycan array binding signal (z-score),[41],-0.372
same,glycan array binding signal (z-score),[42],0.008
same,glycan array binding signal (z-score),[43],-0.069
same,glycan array binding signal (z-score),[44],-0.406
same,glycan array binding signal (z-score),[45],-0.296
